# Assay results from PubChem BioAssay AID1259400 (National Center for Advancing Translational Sciences (NCATS), 2018).
# About 2,100 (0.6%) of roughly 350,000 compounds were called active. This list was built around the results that the source calls inconclusive (neither active nor inactive); the mix of calls is not that of the screen.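 How the source made its calls: active means activity change of -60% or lower, but not beyond a set lower limit; inconclusive means change between -60% and -40%, or beyond the set limit; inactive means change above -40%.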
# Biological target: Relaxin receptor 1 (Homo sapiens) (UniProt Q9HBX9)
# UniProt Q9HBX9, sequence (Q9HBX9 whole entry, looked up): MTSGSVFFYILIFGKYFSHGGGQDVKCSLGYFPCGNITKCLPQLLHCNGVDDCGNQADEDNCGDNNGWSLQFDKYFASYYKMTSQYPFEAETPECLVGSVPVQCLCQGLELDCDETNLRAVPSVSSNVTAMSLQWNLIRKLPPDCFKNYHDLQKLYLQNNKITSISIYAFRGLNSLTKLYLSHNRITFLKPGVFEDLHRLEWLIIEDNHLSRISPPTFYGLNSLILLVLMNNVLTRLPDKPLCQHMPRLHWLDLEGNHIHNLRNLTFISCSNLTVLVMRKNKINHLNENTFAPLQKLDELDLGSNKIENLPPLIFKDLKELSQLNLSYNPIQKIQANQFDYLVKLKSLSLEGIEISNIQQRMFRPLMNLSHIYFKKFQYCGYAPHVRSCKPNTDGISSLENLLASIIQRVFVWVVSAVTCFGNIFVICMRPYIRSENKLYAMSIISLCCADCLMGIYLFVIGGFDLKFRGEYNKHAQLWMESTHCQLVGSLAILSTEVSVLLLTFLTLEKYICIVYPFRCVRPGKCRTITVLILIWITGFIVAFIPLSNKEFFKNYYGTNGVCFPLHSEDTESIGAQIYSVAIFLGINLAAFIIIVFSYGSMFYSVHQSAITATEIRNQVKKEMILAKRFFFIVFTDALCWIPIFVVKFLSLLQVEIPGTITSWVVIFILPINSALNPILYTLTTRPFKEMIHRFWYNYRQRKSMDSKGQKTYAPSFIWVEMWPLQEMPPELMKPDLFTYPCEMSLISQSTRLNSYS
# Assay: qHTS Assay for Antagonists of the Relaxin Receptor RXFP1
# Conditions: HEK293-RXFP1, relaxin-stimulated cAMP HTRF, 30 min; at 57.5 µM; stronger effect = lower value
# On the % scale 0 is the no-effect control and ±100 the full control effect.
row,SMILES,"activity change, negative = inhibition"
1,CCC(C)[C@@H](NC(=O)OC(C)(C)C)c1nnc(S(=O)(=O)Cc2cccc(C)c2)o1 (stereo partly specified),inconclusive: -54.6%
2,CC(C)(C)c1ccc(S(=O)(=O)Nc2ccc(O)c(Sc3nc4ccccc4s3)c2)cc1,inactive: -31%
3,Cc1ccc(C2=CC(C)(c3ccc(C)cc3)Nc3nc(C(F)(F)F)nn32)cc1 (stereo unspecified),active: -66.9%
4,COc1cccc(NC(=O)Cc2csc(NC(=O)Nc3ccccc3OC)n2)c1,inconclusive: -43.7%
5,CCN(c1ccc(C)cc1)S(=O)(=O)c1nnc(NC(=O)c2cccs2)s1,inconclusive: -57.2%
6,O=[N+]([O-])c1ccc(Nc2c3ccccc3nc3ccccc23)cc1,inconclusive: -46.8%
7,CCN(c1cc(C)cc(C)c1)S(=O)(=O)c1nnc(NC(=O)c2cccc(F)c2)s1,inconclusive: -44.1%
8,O=C(Nc1cccc(NC(=O)c2cccc([N+](=O)[O-])c2)n1)c1cccc([N+](=O)[O-])c1,inactive: 9.68%
9,O=c1[nH][nH]c(=S)n1C1CCCCC1,inactive: -22%
10,N#Cc1c(NC(=O)Cn2c(=O)oc3ccccc32)oc(-c2ccccc2)c1-c1ccccc1,inconclusive: -43.1%
11,CCn1ccc(C(=O)Nc2ccc(Cl)cn2)n1,inactive: -1.28%
12,CCOC(=O)c1c(S(=O)(=O)NCC(=O)Nc2cc(C)ccc2OC)c(C)n(C)c1C,inconclusive: -41.8%
13,C#CCN(C[C@@H]1[C@@H](OC(=O)Nc2c(C)noc2C)[C@@H](OC(=O)Nc2c(C)noc2C)Cn2c(=O)n(CCCCCC)c(=O)n21)S(=O)(=O)c1ccc(C)cc1,inactive: 2.05%
14,CC(=O)Nc1ccc(NC(=O)CN(C)S(=O)(=O)c2ccc3c(c2)CCC(=O)N3)cc1,active: -85.8%
15,COc1cc2oc3ccccc3c2cc1N(CC(=O)N(C)C)S(=O)(=O)c1ccc(C)cc1,inactive: -6.5%
16,CN(C)CCCN1c2ccccc2Sc2ccc3ccccc3c21,active: -62.6%
17,CCc1nnc(NC(=O)CSc2nnc3c4ccccc4n(C)c3n2)s1,inactive: -1.1%
18,O=C(Nc1ccc2nsnc2c1)C1CC1,inconclusive: -50.1%
19,CCOC(=S)SCC(=O)Nc1nc(-c2ccc(Br)cc2)cs1,inconclusive: -47.3%
20,O=C(N/N=C/C=C\c1ccco1)c1cccs1,inconclusive: -43%
21,Cc1ccc(Cl)cc1N(C)C(=O)c1cc2ccc3cccnc3c2[nH]1,inconclusive: -49.6%
22,Cc1cc(O)c(CN2CCN(c3ccc(F)cc3)CC2)c2oc(=O)cc(C)c12,inactive: -9.81%

row,SMILES,"activity change, negative = inhibition"
1,CCOc1ccc(-c2nnc(SCC(=O)NCCc3ccccc3)nc2-c2ccc(OCC)c(OC)c2)cc1OC,inconclusive: -43.4%
2,C=CCC1(CC=C)CCCN1C(=O)CC1C(=O)NCCN1Cc1ccccc1OC (stereo unspecified),inconclusive: -56%
3,CC(=O)c1cn(CC(=O)Nc2c(C)cccc2C)c2ccccc12,inactive: 1.29%
4,Cc1ccc(-c2nc(NCc3cccnc3)c3ccccc3n2)cc1,inactive: -20.5%
5,CC(C)CCN1CCN(Cc2cccn2-c2cccnc2)CC1CCO (stereo unspecified),inactive: 0.823%
6,O=C(/C=C/c1ccc(Br)cc1)N1CCN(Cc2ccccc2)CC1,inconclusive: -42.5%
7,CCc1ccc(C(O)(CC)C(CN2CCOCC2)c2ccccc2)cc1 (stereo unspecified),inconclusive: -54.7%
8,COc1cccc(NC(=O)CN(C)CC(=O)Nc2ccc(Cl)cc2[N+](=O)[O-])c1,inactive: -11.5%
9,Cc1nn(-c2ccccc2)c(C)c1NC(=O)COc1ccc2ccccc2c1,inconclusive: -41.5%
10,COc1ccc(-c2nc(SC(C)C(=O)NC3CC3)n[nH]2)cc1 (stereo unspecified),inactive: -4.94%
11,CCn1c(SCC(=O)NC(=O)NCc2ccco2)nc2sc(C)c(C)c2c1=O,active: -69.4%
12,Cc1onc(-c2ccccc2Cl)c1C(=O)NCc1nc(-c2ccc(C(F)(F)F)cc2)no1,inconclusive: -58.6%
13,Cc1oc2cc(Br)c(O)c(Br)c2c1-c1ccccc1,active: -101%
14,CN(CC(=O)Nc1ccc(Br)cc1)S(=O)(=O)c1cccc2nsnc12,inconclusive: -42.5%
15,CCOC(=O)C(=CNc1cccc(C)c1C)C(=O)OCC,inconclusive: -48.1%
16,CCC(C(=O)Nc1ccc(C(C)C)cc1)c1ccccc1 (stereo unspecified),inconclusive: -58.3%
17,Cc1ccc2c(C)c(C(=O)NCC(c3ccc(Cl)cc3)N3CCOCC3)oc2c1 (stereo unspecified),inconclusive: -50.4%
18,COc1ccccc1N1CCN(Cc2cc(Br)c(O)c3ncccc23)CC1,active: -92%
19,Cc1ccccc1CCN(C(=O)c1csnn1)C(C(=O)NC1CCCC1)c1ccncc1 (stereo unspecified),inconclusive: -58.8%
20,CCC(C)c1ccc(O)c(NC(=S)NC(=O)c2cccs2)c1 (stereo unspecified),inconclusive: -49.7%
21,CCOC(=O)c1cc(C)n(CC2CCC(C(=O)Nc3ccc(OC)cc3)CC2)c1C (stereo unspecified),inactive: -0.667%
22,CC(C)N=c1scc(-c2cccs2)n1/N=C/c1ccc(O)c(O)c1O,active: -62.6%

row,SMILES,"activity change, negative = inhibition"
1,O=C(Nc1ccc(Cl)cn1)C1C(c2ccccc2)C1(Cl)Cl (stereo unspecified),active: -98.2%
2,O=c1c2cccnc2[nH]c(=S)n1CCCN1CCN(c2ccc(F)cc2)CC1,inactive: 3.52%
3,O=C(Nc1ccccc1F)c1cnc(N2CCCCC2)c2ccccc12,inconclusive: -57.4%
4,C=CCc1cc(Cl)ccc1OCCNCCOC,active: -81.3%
5,O=C1Nc2ccccc2/C1=C\C(=O)c1ccccc1,inconclusive: -55.6%
6,CCN(C(=O)Cn1nc(C)n2c(cc3cc(C)ccc32)c1=O)c1ccccc1,inactive: -24.2%
7,COc1ccc(C(O)(CCC(C)C)C(CN2CCOCC2)c2ccccc2)cc1 (stereo unspecified),inconclusive: -42.7%
8,CC(=O)OCC(=O)Nc1ccc([N+](=O)[O-])cc1Cl,inactive: 5.74%
9,O=C(CCN1C(=O)/C(=C\c2ccccc2Cl)SC1=S)Nc1cccnc1,inconclusive: -55.8%
10,O=C1NC2c3c(I)sc(I)c3C(=O)C2O1 (stereo unspecified),inconclusive: -47.3%
11,CCn1c2ccccc2c2cc(NC(=O)CN3CCCC3)ccc21,inconclusive: -44.1%
12,Cc1cccc(C)c1N1CCN(CCn2c(=S)[nH]c3ccccc3c2=O)CC1,inconclusive: -55.5%
13,O=C(CSc1nc(=O)n2cc(Cl)ccc2n1)Nc1ccc2c(c1)OCO2,inactive: 5.38%
14,COc1ccc(OCC(=O)NCc2ccc3c(c2)CCN3C(=O)c2ccc(F)cc2)cc1,inconclusive: -40.3%
15,CN(CC1CCOCC1)C(=O)CC1C(=O)NCCN1Cc1ccc(Cl)c(F)c1 (stereo unspecified),inactive: -2.5%
16,COc1ccc(-c2[nH]c(-c3cccc(OC)c3)nc2SCC(=O)NC2CCCC2)cc1,inconclusive: -48.1%
17,O=C1/C(=C/c2ccc(F)cc2)SC(=S)N1CCCC(=O)N1CCCCC1CCO (stereo unspecified),active: -99.6%
18,COC(=O)c1c(NC(=O)Cn2cc([N+](=O)[O-])cn2)sc2c1CCC2,inactive: 1.76%
19,O=c1c2ccccc2[nH]c(=S)n1CCN1CCc2ccccc2C1,active: -75.3%
20,CCOc1cccc(C2c3c(-c4cc(C)ccc4O)n[nH]c3C(=O)N2Cc2ccco2)c1 (stereo unspecified),active: -75.9%
21,Cc1cccc(CN2CCc3c([nH]c4ccccc34)C2)c1,inconclusive: -42.3%
22,O=C(c1cccs1)N1N=C(c2ccccc2)CC1c1ccc(O)cc1 (stereo unspecified),inconclusive: -42%

row,SMILES,"activity change, negative = inhibition"
1,CCc1ccc2oc(C(=O)NCc3ccc(S(N)(=O)=O)cc3)c(C)c2c1,active: -120%
2,CC(=O)N=c1scc(-c2ccccc2)n1-c1cccc(O)c1,inconclusive: -51%
3,O=C(N/N=C/c1cccnc1)c1ccc([N+](=O)[O-])cc1Cl,inactive: 1.78%
4,Cc1c(C)c2c(c(C)c1OC(=O)c1cccnc1)CC[C@@](C)(CCC[C@H](C)CCC[C@H](C)CCCC(C)C)O2,inactive: 11.3%
5,O=C(CCC1N=C2c3ccccc3N=C(SCC(=O)NCC3CCCO3)N2C1=O)NCc1ccc(F)cc1 (stereo unspecified),active: -69%
6,Cc1cc(NC(=O)C2CCN(S(=O)(=O)c3ccc4[nH]c(=O)oc4c3)CC2)ccc1Br,inconclusive: -48.3%
7,Cc1ccc(N2C(=O)CC(Nc3ccc(Cl)c(S(=O)(=O)N(C)C)c3)C2=O)c(C)c1 (stereo unspecified),inactive: -0.0158%
8,Cc1ccc2oc3c(c(=O)c2c1)C(c1cccc(O)c1)N(c1ccccn1)C3=O (stereo unspecified),inconclusive: -47.1%
9,CC12CCC(=O)N1C(C(=O)N1CCN(S(=O)(=O)c3ccc(Br)cc3Cl)CC1)CS2 (stereo unspecified),active: -66.2%
10,COc1ccc2[nH]c(C(=O)Nc3cccc(C)n3)cc2c1,inconclusive: -40.5%
11,COc1ccc(C(=O)CSc2c(C(C)C)cnc3c2c(=O)n(C)c(=O)n3C)cc1,inconclusive: -41.8%
12,Cc1ccc(Cl)cc1NC(=O)C(=O)NCC(c1cccnc1)N1CCc2ccccc21 (stereo unspecified),inconclusive: -41.4%
13,Cc1ccc(C(=O)N/C(=C\c2ccc(-c3ccc(Br)cc3)o2)C(=O)NCCCN(C)C)cc1,active: -60.8%
14,Cc1ccc(N2C(=O)C3C(C2=O)N2C(c4cccs4)C4C(=O)N(c5ccc(C)cc5)C(=O)C4N2C3c2cccs2)cc1 (stereo unspecified),inconclusive: -40.7%
15,CCc1ccccc1NC(=O)CCN1C(=O)c2ccccc2C1=O,inactive: 3.1%
16,CN1C(=O)/C(=C\C(=O)c2cccs2)c2ccccc21,active: -97.6%
17,CC1CCN(C(=O)/C=C/c2ccc(C(C)(C)C)cc2)CC1,inconclusive: -48.2%
18,CCOC(=O)C1CCN(C2CCN(Cc3nc(-c4ccccc4)no3)CC2)CC1,inconclusive: -53.5%
19,CC1CCCC(NC(=O)c2n[nH]c(=O)c3ccccc23)C1C (stereo unspecified),inactive: -19.3%
20,O=C(CCc1ccccc1)N(Cc1cccnc1)c1nc2c(F)cccc2s1,inconclusive: -48.6%
